Assay results taken from PubChem BioAssay AID651820 (National Center for Advancing Translational Sciences (NCATS), 2012).
In all, about 340,000 compounds went through this assay and about 12,000 (3.5%) were called active. This list was built around the results that the source calls inconclusive (neither active nor inactive); the mix of calls is not that of the screen. Calls come from the whole dose curve; as a rule, active = well fitted inhibition curve with a large enough effect; inconclusive = small, poorly fitted or top-dose-only effect, or another doubt; inactive = no such curve, though single readings can be large or run the other way. Potencies of inconclusive entries are left out as doubtful fits.
Potency is the fitted concentration of half-maximal effect; tags give direction and shape of the fitted curve.

Experiment: qHTS Assay for Inhibitors of Hepatitis C Virus (HCV)
Conditions: Huh7.5.1 HCVcc-Cre (HCVcc is cell-culture hepatitis C virus) infection, luciferase reporter, 44 h; series mostly up to 41.8 µM
Procedure, shortened: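 Infectious HCV cell culture screen: compound-treated cells (1,000/well, pre-plated 4 h) are infected with HCVcc-Cre at roughly 0.5 moi and grown 44 h. Infection is quantified by luciferase signal after 15 min substrate incubation at room temperature.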
For CCCCCCCCCCCCn1ccc(=N)cc1, the Potency was active: 0.501 µM. In the case of O=C(CCCN1CCc2[nH]c3ccc(F)cc3c2C1)c1ccc(F)cc1, the Potency is reported as inconclusive [inhibitor, single point]. With CN1CCN(CC/C=C2/c3ccccc3Sc3ccc(S(=O)(=O)N(C)C)cc32)CC1 the Potency was inconclusive [inhibitor, single point]. With Cc1nn(-c2cccc(Cl)c2)c2nc(-c3ccco3)cc(C(=O)O)c12 the Potency was “inactive”. With C[C@@]12C(=O)Nc3cc(F)ccc3C(=O)N1[C@H]1c3cc(Br)ccc3OC[C@@H]1[C@@H]2c1ccccc1 the Potency was inconclusive [inhibitor, single point]. For CCN(CC)S(=O)(=O)c1ccc(OC)c(NC(=O)CSc2ccccc2)c1, the Potency was “inactive”. With C=CCOc1ccc(Cl)cc1CNCCCN1CCOCC1 the Potency was inconclusive [inhibitor, partial curve]. For O=C(Nc1ccccc1)c1ccc(S(=O)(=O)Nc2cccc(O)c2)cc1, the Potency was inconclusive [inhibitor, single point]. For CCN1C[C@@H]2[C@@H]3C(=O)N(Cc4ccccc4)C(=O)[C@@H]3[C@](Cc3ccccc3)(C1=O)N2C(=O)c1ccc(Cl)cc1, the Potency was “inactive”. With Cc1ccc(-c2ocnc2C(=O)Nc2ccccc2NC(=O)c2ccccn2)cc1 the Potency was inconclusive [inhibitor, partial curve]. With Brc1ccc(OCCCCCN2CCOCC2)cc1 the Potency was inconclusive [inhibitor, single point]. In the case of CCC(=O)c1cc2c(cc1NC(=O)c1ccccc1)OCCO2, the Potency is reported as active: 3.98 µM. For Cc1ccc(C(=O)Nc2cccc(C(=O)N/N=C/c3ccc(F)cc3)c2)cc1, the Potency was inconclusive [inhibitor, full curve]. In the case of Cc1cc(O)ccc1Nc1nc2ccccc2nc1Nc1ccc(O)cc1C, the Potency is reported as inconclusive [inhibitor, single point]. In the case of COc1cc(OC)cc(C(=O)N2CCCc3ccccc32)c1, the Potency is reported as inconclusive [inhibitor, full curve, poor fit]. With O=[N+]([O-])c1ccc2oc(-c3cccc(O)c3)nc2c1 the Potency was inconclusive [inhibitor, single point]. With CC(C)(C)C(=O)NC1=NN(c2c(Cl)cc(Cl)cc2Cl)C(=O)C1 the Potency was “inactive”. For COc1ccc(-c2nnn3c2nc(NCc2ccccc2)c2ccccc23)cc1, the Potency was inconclusive [inhibitor, full curve, poor fit]. In the case of CCN(CC)CC(O)c1ccc2ccc3ccc(O)cc3c2c1 (centres undefined), the Potency is reported as inconclusive [inhibitor, single point].
